Laboratory results from PubChem BioAssay AID686971 (National Center for Advancing Translational Sciences (NCATS), 2013).
Out of some 360,000 compounds screened, about 7,500 (2.1%) were called active. Inconclusive means that the source gave no clear call. Such entries were picked first, then a sample of the others. Calls follow the shape of the dose curve; as a rule, active = well fitted cell-killing curve with a large enough effect; inconclusive = small, poorly fitted or top-dose-only effect, or effect the other way, or another doubt; inactive = no such curve, though single readings can be large or run the other way. No potency is given beside an inconclusive call; the fits are too rough.

test: qHTS for induction of synthetic lethality in tumor cells producing 2HG: qHTS for the HT-1080-IDH1KD cell line; details: HT-1080 IDH1 knockdown viability, ATP luminescence, 48 h; activity, negative = toxicity: at 46.1 µM (top of the series) unless noted;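 as to activity, negative = toxicity: 0% = DMSO wells and -100% = cell-free medium wells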
Summary of the method: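 CellTiter-Glo luminescence after 48 h compound exposure at 37 degrees C of IDH1-knockdown HT-1080 cells in 5% FBS RPMI. %Activity scaled between DMSO wells and cell-free media wells, with curves fitted and assigned curve classes.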
Potency is read from the fitted curve at half-maximal effect; tags tell the direction and shape of the fitted curve.

Row | SMILES | Potency | activity, negative = toxicity
1 | COc1cc(-c2cc3nc(NCCOc4ccccc4)ccn3n2)cc(OC)c1OC | active: 9.2 µM | 
2 | CCN1CCN(C(=S)Nc2ccc(Cl)cc2Cl)CC1 | inconclusive [cytotoxic, single point] | 
3 | CC(=O)c1cccc(NC(=O)C(Sc2ncnc3ccccc23)c2ccccc2)c1 (centres undefined) | inactive | 
4 | O=C(N/N=C/c1ccccc1O)C1CC(=O)N(c2ccc(F)cc2)C1 (centres undefined) | inconclusive [cytotoxic, single point] | 
5 | COc1ccc2cc(CCNC(=O)C(C)(C)C)c(=O)[nH]c2c1 | inactive | 
6 | CCC(NC(=O)c1ccc2nc(Cc3ccc(OC)cc3)oc2c1)c1ccncc1 (centres undefined) | active: 20.6 µM | 
7 | CC[C@H](C)/C=C(C)/C=C/C1=CC2=CC(=O)[C@]3(C)OC(=O)[C@@H](C(C)=O)[C@@H]3C2=CO1 | inconclusive [cytotoxic, single point] | 
8 | Cc1onc(-c2cccc(Cl)c2Cl)c1C(=O)O/N=C(\N)c1ccc([N+](=O)[O-])o1 | inconclusive [cytotoxic, partial curve] | 
9 | CCOC(=O)Nc1ccc2c3c(cccc13)-c1ccccc1-2 | inconclusive [cytotoxic, single point] | 
10 | COC(=O)C(C(C)=O)C1=C/C(=N\S(=O)(=O)c2ccc(C)cc2)c2ccccc2C1=O (centres undefined) | inconclusive [cytotoxic, single point] | 
11 | Cc1ccc(C(=O)Cn2nc(C)c([N+](=O)[O-])c2C)c(C)c1 | inactive | 
12 | COc1ccccc1-c1cc(C(F)(F)F)nc(S(=O)(=O)CCCC(=O)Nc2cccnc2Cl)n1 | active: 25.9 µM | 
13 | CCOC(=O)c1ccc(N(C(=O)CNC(=O)c2ccco2)C(C(=O)NCC2CCCO2)c2ccc(OC)c(OC)c2)cc1 (centres undefined) | inactive | 
14 | COc1ccc(NC(=O)CCCNC(=O)Cn2cnc3sc(C)c(C)c3c2=O)cc1Cl | inconclusive [cytotoxic, single point] | 
15 | O=C(c1ccccc1)c1coc2c1C(=O)c1ccccc1C2=O | active: 18.4 µM | 
16 | Fc1cccc(/C=N/Nc2nccnc2Cl)c1 | active: 14.6 µM | 
17 | CCOc1cc(C2C(C(=O)OC)=CN(Cc3ccc(Cl)cc3)C=C2C(=O)OC)ccc1O | inconclusive [cytotoxic, single point] | 
18 | Cc1cccc(C)c1OCC(=O)Nc1cccc(S(=O)(=O)N2CCCCCC2)c1 | inactive | 
19 | COc1ccc(N=Cc2nc(-c3ccco3)oc2O)cc1 | inconclusive [cytotoxic, partial curve] | 
20 | O=C(NCc1cccs1)Nc1cccc(Cl)c1 | inactive | 
21 | COc1cc2c(cc1OC)CN(C(=O)c1cc(=O)c3ccccc3o1)CC2 | active: 5.8 µM | 
22 | CCNC(=O)c1cc2c(c(-c3cccc(-c4cc5ccccc5o4)c3)n1)[C@H](CCO)N(C(=O)NC(C)C)C2 | inconclusive [cytotoxic, single point] | 
23 | CCCOc1ccccc1C1NC(=O)NC(C)=C1C(=O)OCc1ccccc1 (centres undefined) | inconclusive [cytotoxic, single point] | 

Row | SMILES | Potency | activity, negative = toxicity
24 | Cc1ccc(C2C3=C(CC(C)(C)CC3=O)OC3=C2C(=O)CC(C)(C)C3)cc1 | inactive | 
25 | CCN(CC)c1ccc2c(-c3ccc(S(=O)(=O)O)cc3S(=O)(=O)[O-])c3ccc(=[N+](CC)CC)cc-3oc2c1 | inconclusive [cytotoxic, partial curve] | 
26 | COc1ccc(C)cc1Nc1n[n+](-c2ccccc2)c(-c2cccc(Cl)c2Cl)s1 | inconclusive [cytotoxic, single point] | 
27 | CN(C)C(CNC(=O)c1cccc(S(=O)(=O)NCc2ccccc2)c1)c1ccco1 (centres undefined) | inactive | 
28 | COc1cc2cc(-c3ccc(O)cc3O)nc(C)c2cc1OC | inconclusive [cytotoxic, single point] | 
29 | CC1CC(=O)NN=C1c1ccc(N(C)C)c([N+](=O)[O-])c1 (centres undefined) | inactive | 
30 | Cc1ccc(S(=O)(=O)N2[C@@H](c3ccc(C(C)(C)C)cc3)C(C(=O)O)=CC[C@H]2c2ccc(Cl)cc2)cc1 | inconclusive [cytotoxic, partial curve] | 
31 | N#Cc1ccccc1OCC(=O)NC(=O)NCc1ccco1 | inactive | 
32 | CS(=O)(=O)c1nc2c(cc1C#N)CCCC2 |  | inconclusive: -38.2% [cytotoxic]
33 | Cc1noc(C)c1S(=O)(=O)Nc1ccc(C(=O)Nc2ccc(OC(F)(F)F)cc2)cc1 | inconclusive [cytotoxic, single point] | 
34 | CCN(CC(=O)NCc1cccs1)C(=O)c1ccc(-c2ccccc2F)o1 | inactive | 
35 | COc1cccc(CCN2CCC(CNS(=O)(=O)c3cc(-c4cc(C)no4)ccc3C)CC2)c1 | inconclusive [cytotoxic, single point] | 
36 | CCc1cc2c(=O)[nH]c(Cc3ccccc3)nc2s1 | inconclusive [cytotoxic, single point] | 
37 | CN(C(=O)CN1CCN(c2cc(-c3ccc(-c4ccccc4)cc3)ncn2)CC1)c1ccccc1 | active: 13 µM | 
38 | CC1CCCN(CCCOc2ccccc2-c2ccccc2)C1 (centres undefined) | inconclusive [cytotoxic, partial curve] | 
39 | C[C@@H]1CCCCO[C@H](CN(C)Cc2ccc3c(c2)OCO3)[C@@H](C)CN([C@H](C)CO)C(=O)c2cc(NC(=O)c3ccccc3)ccc2O1 | inconclusive [cytotoxic, partial curve] | 
40 | CCCOc1ccccc1N/C(=N\S(=O)(=O)c1ccc(C)cc1)Nc1nc(C)cc(C)n1 | inactive | 
41 | CCCCCCNCc1cccc(Br)c1 | inconclusive [cytotoxic, single point] | 
42 | COc1cc(C(=O)Nc2ccc3c(c2)Cc2cc(NC(=O)c4cc(OC)c(OC)c(OC)c4)ccc2-3)cc(OC)c1OC | inconclusive [cytotoxic, partial curve] | 
43 | C=C(C)Cn1c2ccc(NC(=O)CCc3cccc(Cl)c3)cc2c(=O)n1C | inconclusive [cytotoxic, single point] | 
44 | COc1ccccc1NNC(=O)c1cccnc1Oc1ccccc1 | inconclusive [cytotoxic, partial curve] | 
45 | Cc1cc(C(=O)NN=C2CCCCC2)c2ccccc2n1 | inconclusive [cytotoxic, single point] | 
46 | COc1ccc(NC(=O)CSCC(=O)N2CCN(c3cccc(C(F)(F)F)c3)CC2)cc1 | inactive | 

Row | SMILES | Potency | activity, negative = toxicity
47 | O=C(c1ccc(F)cc1)C(CN1CCOCC1)c1ccccc1 (centres undefined) | active: 5.17 µM | 
48 | C=CC(=O)OCCOCCOCCOCCOC(=O)C=C | active: 23.1 µM | 
49 | C=CC[n+]1c(-c2ccc(C)cc2)csc1NNC(=O)Nc1ccccc1 | inconclusive [cytotoxic, single point] | 
50 | Cc1c(-c2cccc(Cl)c2)nc2ccccc2c1C(=O)OC/C(O)=C(\C#N)c1nc2ccccc2[nH]1 | inactive | 
51 | CCOC(=O)C1(Cc2cccc(OC)c2)CCN(Cc2cccc3c2OCO3)CC1 | inconclusive [cytotoxic, partial curve, poor fit] | 
52 | CCOc1cccc2sc(N3CCN(C(=O)c4ccc5ncsc5c4)CC3)nc12 | inactive | 
53 | COc1ccc(N/N=C(/C(N)=O)C2=NC(C)(C)Cc3ccccc32)cc1 | inconclusive [cytotoxic, partial curve] | 
54 | O=C(CCN1C(=O)/C(=C/c2ccc(F)cc2)SC1=S)NNC(=O)c1ccncc1 | inactive | 
55 | Cc1cccc(CCNC(=O)CCS(=O)(=O)c2cc3c(cc2Cl)NC(=O)CO3)c1 | inconclusive [cytotoxic, single point] | 
56 | O=C(NCC(c1cccs1)N1CCOCC1)c1ccccc1NS(=O)(=O)c1cccc([N+](=O)[O-])c1 (centres undefined) | inconclusive [cytotoxic, single point] | 
57 | CC(=O)N1CCSc2ccc(S(=O)(=O)NCCc3ccc(Cl)cc3)cc21 | inconclusive [cytotoxic, single point] | 
58 | CCc1ccc2[nH]c(=O)c(CN(CCN(CC)CC)C(=O)Nc3ccccc3OC)cc2c1 | inconclusive [cytotoxic, single point] | 
59 | CSCC[C@H](NC(=O)[C@@H]1Cc2c([nH]c3ccccc23)C2c3ccccc3C(=O)N21)C(=O)NCC1CCCO1 (some centres undefined) | inconclusive [cytotoxic, single point] | 
60 | Cn1c(/C=C/c2cccc(Br)c2)nc2ccccc2c1=O | inconclusive [cytotoxic, single point] | 
61 | CCc1ccc(OCC(=O)NC2CCCCC2)c(Br)c1 | inconclusive [cytotoxic, single point] | 
62 | O=C1NC2(CCC3(CC2)OCCO3)NN1c1ccc(Cl)cc1 | active: 6.51 µM | 
63 | Cc1ccc(CN2CCN(C(=O)c3ccco3)CC2)cc1 | inactive | 
64 | NC1(C(=O)O)CSSC1 | inconclusive [cytotoxic, single point] | 
65 | CC1=CC(C)(C)N2C(=O)C3(C(C#N)=C(N)Oc4cc(O)ccc43)c3c(C)c(C)cc1c32 (centres undefined) | inconclusive [cytotoxic, single point] | 
66 | CCOc1ccc(/C=N/NC(=O)c2cc(-c3ccco3)nc3ccccc23)cc1 | inactive | 
67 | COc1ccc(OC)c2nc3c(C(=O)NCCN(C)C)cccc3nc12 | active: 20.6 µM | 
68 | CCN(CC)C(=O)NCc1c(C)cc(C)cc1C | inconclusive [rising, single point] | 
69 | CC(C)c1ccc(CN2CCN(C(=O)CCl)CC2)cc1 | inconclusive [cytotoxic, single point] | 
